Here are results for 5 compounds from patent US20030099983A1, “Cyclic and substituted immobilized molecular synthesis” (Affymetrix, Inc., priority 1991, published 2003).

This assay concerns D32.39 antibody. Kind of assay: Solution competition of free peptide against radiolabeled dynorphin B peptide for D32.39 antibody. It is filed as binding, mouse. Particulars: free peptide in solution. Here is the method: To confirm the interpretation of the observed fluorescence signals, peptides synthesized on a conventional solid phase peptide synthesizer were tested. The IC50 values for the competition of free peptide against radiolabeled dynorphin B peptide were determined and are tabulated in Table 3. There is a striking correlation between the rank ordering of the relative fluorescence intensity and the solution IC50 values.

Compound Ac-RRQFKVVT-OH came in with an IC50 of 3.9 nM.

In turn, Ac-RQFKVVT-NH2 [Ac-RQFKVVT-NH2] came in with a half-maximal inhibitory concentration (IC50) of 7.3 nM.

Consider `CC(C)C[C@H](NC(=O)[C@H](Cc1ccccc1)NC(=O)CNC(=O)CNC(=O)[C@@H](N)Cc1ccc(O)cc1)C(=O)N[C@@H](CCCNC(=N)N)C(=O)N[C@@H](CCCNC(=N)N)C(=O)N[C@@H](CCC(N)=O)C(=O)N[C@@H](Cc1ccccc1)C(=O)N[C@@H](CCCCN)C(=O)N[C@H](C(=O)N[C@H](C(=O)N[C@H](C(=O)O)[C@@H](C)O)C(C)C)C(C)C` [reference compound], for which the concentration for half-maximal inhibition (IC50) is 5.7 nM.

The compound Ac-RQFKVVT-OH [Ac-RQFKVVT-OH] gave an IC50 of 11 nM.

On to Ac-QFKVVT-OH [Ac-QFKVVT-OH], for which the IC50 is 3200 nM.
